Test results reported in PubChem BioAssay AID1347428 (National Center for Advancing Translational Sciences (NCATS), 2020).
The whole screen tested about 91,000 compounds, of which about 290 (0.32%) were called active. The inconclusive results got no clear call from the source; some entries with a clear call stand among them for comparison. The call rests on the fitted dose curve; in most records, active means well fitted inhibition curve with a large enough effect; inconclusive means small, poorly fitted or top-dose-only effect; inactive means no such curve, though single readings can be large or run the other way. Where the call is inconclusive, the potency comes from a doubtful curve fit.
Further: nearly all actives have a fitted effect of over 25% in size.
Potency means the concentration at half of the fitted maximal effect; tags describe the fitted curve by direction and shape.

These molecules were tested against Single-stranded DNA cytosine deaminase (Homo sapiens) (UniProt Q9GZX7) (assay: Primary qHTS assay for inhibitors of Activation Induced Cytidine Deaminase (AID): AID signal). Conditions: AID deamination FRET fluorescence, UDG-coupled, 4 h; series mostly up to 115 µM.
UniProt Q9GZX7, sequence (Q9GZX7 whole entry, looked up): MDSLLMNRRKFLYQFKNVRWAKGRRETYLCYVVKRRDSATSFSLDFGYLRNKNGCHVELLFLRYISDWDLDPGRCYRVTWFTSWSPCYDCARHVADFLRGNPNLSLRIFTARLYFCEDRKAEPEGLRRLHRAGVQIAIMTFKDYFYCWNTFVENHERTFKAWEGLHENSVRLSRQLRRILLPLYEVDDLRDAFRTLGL
In the case of CC(=O)c1cccc(NC(=O)CSc2nnc3ccc(-c4ccc5c(c4)OCO5)nn23)c1, the Potency was inconclusive: 79.4 µM [inhibitor, partial curve, poor fit].
With CC(C)COc1ccc(C(=O)Nc2cccc3cccnc23)cc1 the Potency was inconclusive: 89.1 µM [inhibitor, partial curve, poor fit].
CC1=C(C(=O)Nc2ccccc2)C(c2cc(Br)ccc2F)n2ncc(C(=O)Nc3ccccc3)c2N1 (configuration not stated) was tested, and the Potency was inconclusive: 79.4 µM [inhibitor, partial curve, poor fit].
For CCS(=O)(=O)c1c(Nc2cc(C)ccc2C)sc(C(=O)c2ccccc2)c1N, the Potency was inconclusive: 35.5 µM [inhibitor, partial curve].
In the case of O=C(COc1ccc(Cl)cc1)NCC(c1ccco1)S(=O)(=O)c1ccc(Cl)cc1 (configuration not stated), the Potency was inconclusive: 12.6 µM [inhibitor, full curve, poor fit].
CCN1CCSc2ccc(C(=O)NCc3ccccc3Br)cc21 was tested, and the Potency was inconclusive: 12.6 µM [inhibitor, full curve].
CCC(=O)Nc1nnc2n1CCS2 was tested, and the Potency was inconclusive: 100 µM [inhibitor, single point].
With CCCCOc1ccc(C(=O)N(Cc2ccco2)Cc2ccco2)cc1 the Potency was inconclusive: 22.4 µM [inhibitor, full curve].
For O=C(N/N=C/c1cc(Br)cs1)c1ccccc1, the Potency was “inactive”.
With CCOc1ccc(Nc2nnc(-n3nc(C)cc3C)c3ccccc23)cc1 the Potency was “inactive”.
With Cc1cccc(-n2ccnc2SCC(=O)Nc2cccc3ccccc23)c1C the Potency was inconclusive: 89.1 µM [inhibitor, single point].
With CCN(C(=O)Cn1cnc2onc(-c3ccc(F)cc3)c2c1=O)c1ccc(OC)cc1 the Potency was inconclusive: 89.1 µM [inhibitor, single point].
CCOc1ccccc1CN1CCc2nc(Nc3ccc4c(c3)OCCO4)ncc2C1 was tested, and the Potency was inconclusive: 3.55 µM [inhibitor, full curve, poor fit].
COc1ccc(NC(=O)CCNS(=O)(=O)c2cccc3nsnc23)cc1Cl was tested, and the Potency was inconclusive: 39.8 µM [inhibitor, single point].
In the case of Cc1cccc(-n2c(C)nc3cc(C(=O)NCCC4=CCCCC4)ccc32)c1, the Potency was inconclusive: 50.1 µM [inhibitor, partial curve, poor fit].
Cc1ccc(C(=O)NN=C2CCC(C(C)(C)C)CC2)cc1 (configuration not stated) was tested, and the Potency was “inactive”.
COc1ccc2cc3cc(C(=O)N4CCN(c5ccccc5F)CC4)oc3nc2c1 was tested, and the Potency was inconclusive: 79.4 µM [inhibitor, single point].
With CCN(CC)C(=O)c1ccc2oc(CN3CCN(C(=O)Nc4cccc(F)c4)CC3)nc2c1 the Potency was “inactive”.
With Cc1cccc(N2CCN(C(=O)c3cc4c(=O)n(C)c5ccccc5c4s3)CC2C)c1 (configuration not stated) the Potency was “inactive”.
With COc1ccc(-c2nc(SCc3cc(=O)c4cc(C)ccc4[nH]3)n[nH]2)cc1 the Potency was inconclusive: 112 µM [inhibitor, partial curve, poor fit].
For COc1ccccc1N1CCN(S(=O)(=O)CCNC(=O)COc2ccc(C(C)C)cc2)CC1, the Potency was inconclusive: 31.6 µM [inhibitor, full curve, poor fit].
With COc1ccc(OC)c(CCNC(=O)c2cnn(-c3ccccc3Cl)c2C2CCN(C(=O)OC(C)(C)C)CC2)c1 the Potency was inconclusive: 50.1 µM [inhibitor, partial curve, poor fit].
In the case of CCCc1cc(=O)oc2cc(OS(=O)(=O)c3c(C)c(C)cc(C)c3C)ccc12, the Potency was “inactive”.
With Cc1ccc(Cn2c(SCC(=O)C(C)(C)C)nc3ccsc3c2=O)cc1 the Potency was inconclusive: 25.1 µM [inhibitor, full curve, poor fit].
In the case of Oc1ccc(-c2cn3ccsc3n2)cc1, the Potency was “inactive”.
With CC(=O)c1cccc(NS(=O)(=O)c2ccc3c(c2)NC(=O)CC(=O)N3)c1 the Potency was “inactive”.
With CCN(Cc1ccccc1)C(=O)c1cc2c(s1)-c1c(C)cccc1OC2 the Potency was inconclusive: 39.8 µM [inhibitor, full curve, poor fit].
For COc1cccc(N2CCN(C(=O)c3cnn(-c4ccc(C)cc4C)c3C3CCN(C(=O)OC(C)(C)C)CC3)CC2)c1, the Potency was inconclusive: 39.8 µM [inhibitor, partial curve].
For O=C(NC1CCCCC1)c1ccc2c(c1)N(Cc1ccc(Cl)cc1)C(=O)c1ccccc1S2(=O)=O, the Potency was inconclusive: 39.8 µM [inhibitor, single point].
O=C(CN1C(=O)COc2ccc(S(=O)(=O)N3CCOCC3)cc21)N1CCN(c2ccc(F)cc2)CC1 was tested, and the Potency was inconclusive: 39.8 µM [inhibitor, single point].
In the case of CCc1cccc(NC(=O)Cn2nc(-c3cc(C)ccc3C)ccc2=O)c1, the Potency was inconclusive: 35.5 µM [inhibitor, partial curve, poor fit].
With COc1ccc(-c2nc3ccccc3o2)cc1NC(=O)COc1ccc(C(C)(C)C)cc1 the Potency was inconclusive: 25.1 µM [inhibitor, partial curve].
For Cc1ccc(C)c(Cn2nc(-c3cc(C)ccc3C)ccc2=O)c1, the Potency was inconclusive: 44.7 µM [inhibitor, partial curve, poor fit].
With O=C(NCCc1ccccc1)c1ccc(CSc2nc3ccncc3n2Cc2ccc(F)cc2)cc1 the Potency was inconclusive: 44.7 µM [inhibitor, partial curve, poor fit].
With O=C(CN1C(=O)COc2ccc(S(=O)(=O)NC3CCCC3)cc21)Nc1ccc(Cl)cc1 the Potency was “inactive”.
For Cc1cccc(Cn2c(SCc3ccccc3)nc3c2c(=O)n(C)c(=O)n3C)c1, the Potency was inconclusive: 39.8 µM [inhibitor, partial curve].
For CC1CC(NC(=O)C2CCC2)CC(C)(C)C1 (configuration not stated), the Potency was “inactive”.
For Cc1ccc(CN2COc3ccc4c(-c5ccccc5)cc(=O)oc4c3C2)cc1, the Potency was inconclusive: 39.8 µM [inhibitor, single point].
In the case of Nc1nccnc1C(=O)NCc1nc2ccccc2s1, the Potency was “inactive”.
COC(=O)c1ccc(C2c3c(-c4ccccc4O)n[nH]c3C(=O)N2Cc2ccncc2)cc1 (configuration not stated) was tested, and the Potency was inconclusive: 50.1 µM [inhibitor, partial curve, poor fit].
For Cc1ccc(-c2nc(CS(=O)CC(=O)N3CCN(c4cccc(Cl)c4)CC3)c(C)o2)cc1 (configuration not stated), the Potency was inconclusive: 35.5 µM [inhibitor, partial curve, poor fit].
In the case of CCOc1ccc(C2CC(=O)Nc3cc4c(cc32)OCO4)cc1OC (configuration not stated), the Potency was “inactive”.
With CCCCn1c(=N)n(CCCOc2ccc(F)cc2)c2ccccc21 the Potency was inconclusive: 25.1 µM [inhibitor, partial curve, poor fit].
In the case of CCn1cc2nc(SCc3cc(C)ccc3C)n(CCc3ccccc3)c(=O)c2n1, the Potency was inconclusive: 63.1 µM [inhibitor, partial curve, poor fit].
In the case of COc1ccccc1NC(=O)c1ccc(COc2ccc(C)c(C)c2)o1, the Potency was inconclusive: 50.1 µM [inhibitor, partial curve, poor fit].
In the case of O=Cc1ccc(-c2ccc(I)cc2C(F)(F)F)o1, the Potency was inconclusive: 17.8 µM [inhibitor, partial curve, poor fit].
For COc1ccc(-c2nc3sc(CCNC(=O)c4ccco4)c(C)n3n2)cc1, the Potency was inconclusive: 63.1 µM [inhibitor, partial curve, poor fit].
For COC(=O)c1cc2oc(C)cc2n1Cc1ccc(Br)cc1F, the Potency was inconclusive: 44.7 µM [inhibitor, partial curve, poor fit].
COc1ccc(C2CC(=O)N3CN(C4CCCCC4)CSC3=C2C#N)c(OC)c1 (configuration not stated) was tested, and the Potency was inconclusive: 79.4 µM [inhibitor, partial curve, poor fit].
With CCc1c(C)sc(NC(=O)/C=C/c2ccc(F)cc2)c1C#N the Potency was “inactive”.
With O=c1cc(-c2ccccc2)sc2c1ccc1ccccc12 the Potency was inconclusive: 50.1 µM [inhibitor, partial curve, poor fit].
For Cc1nn2c(=O)cc(COC(=O)c3ccc(NC(=O)COc4ccc(C)c(C)c4)cc3)nc2s1, the Potency was “inactive”.
For Cc1ccc(C)c(CN2CCN(c3nc4c(c(=O)[nH]c(=O)n4C)n3Cc3ccccc3F)CC2)c1, the Potency was inconclusive: 50.1 µM [inhibitor, partial curve, poor fit].
With Cc1ccc2c(c1)c1c(c(=O)n(-c3ccccc3)c(=O)n1CC(=O)NCC1CCCO1)n2C (configuration not stated) the Potency was inconclusive: 3.16 µM [inhibitor, full curve, poor fit].
With O=C(NN=C(c1ccccc1)c1ccccc1)c1ccc[n+]([O-])c1 the Potency was “inactive”.
In the case of COc1ccc(Br)cc1CNC(=O)c1cnc2sc(N3CCC(C)CC3)nn2c1=O, the Potency was inconclusive: 14.1 µM [inhibitor, partial curve, poor fit].
For COc1ccc(C2=NN3C(C2)c2cccc(OC)c2OC32CCN(C(C)=O)CC2)c(OC)c1 (configuration not stated), the Potency was inconclusive: 35.5 µM [inhibitor, partial curve, poor fit].
In the case of Cc1ccc(Cn2c(SCCN3CCCCC3)nc3c2c(=O)n(C)c(=O)n3C)cc1, the Potency was inconclusive: 56.2 µM [inhibitor, partial curve, poor fit].
Cc1cc(Nc2ccccc2C)n2nc(Cc3ccc(Cl)cc3)nc2n1 was tested, and the Potency was inconclusive: 100 µM [inhibitor, single point].
CC(=O)c1ccc(NC(=O)c2ccc3c(c2)N(Cc2cccc(Cl)c2)C(=O)c2ccccc2S3=O)cc1 (configuration not stated) was tested, and the Potency was inconclusive: 7.08 µM [inhibitor, full curve, poor fit].
CN(C)CCCNc1cc(N2CCN(C3CCCCC3)CC2)c2noc3c2c1C(=O)c1ccccc1-3 was tested, and the Potency was active: 39.8 µM.
For COc1cc2ncc3c(-c4ccc(C)cc4)nn(-c4ccc(F)cc4F)c3c2cc1OC, the Potency was inconclusive: 28.2 µM [inhibitor, full curve, poor fit].
